ChEMBL document CHEMBL4888484, “Replenishing the malaria drug discovery pipeline: Screening and hit evaluation of the MMV Hit Generation Library 1 (HGL1) against asexual blood stage Plasmodium falciparum ,using a nano luciferase reporter read-out” (2022)
Out of some 150,000 compounds screened, about 540 (0.36%) showed an effect of 50% or more. Some of the results follow.

system: Plasmodium falciparum; assay: Primary screen in NF54 nanoGlo assay, in single point, at 2uM, 72h; a lower Z score goes with more inhibition; format: functional, Erythrocyte; conditions: timepoint 72 hour

SMILES	% Inhibition [%]	Z score
CCN([C@H]1CCOC1)S(=O)(=O)c1ccc2c(c1)C(=O)CCC2	-15	1.68
NS(=O)(=O)c1ccc(F)c(CNC(=O)C(C2CC2)C2CC2)c1	5	-0.65
O=C(NCCc1cc(F)cc2c1OCOC2)[C@@H]1CC(c2ccccc2)=NO1	2	-0.22
O=C(C1CCCO1)N1CCCN(C2CCN(Cc3ccc(F)cc3)C2=O)CC1 (stereo unspecified)	0	-0.03
FC(F)(F)c1cc(-c2ccccc2)nc(N2CCCC2)n1	-5	0.64
Cc1cc(C)n(NC(=O)[C@@H]2COc3ccccc3O2)c(=O)c1	-9	1.21
Cc1ccccc1C(=O)N1[C@H](C(=O)NC2CC2)COC12CCN(C(=O)c1ccc(F)cc1)CC2	-2	0.23
COc1ccc(NC(=O)Cn2nc3nc(N4CCC[C@H](C)C4)ccn3c2=O)cc1OC	2	-0.38
CCOc1ncccc1C(=O)NC1CCN(c2cc3c(nn2)CCCC3)CC1	-18	3
Cc1c(Cl)cccc1CNC(=O)CCCN1CCCC1=O	-4	0.61
O=C(c1cc2ccccc2[nH]1)N1CCC2(CC1)C[C@@H](Cc1cccc(F)c1)CCO2	-9	1.28
CC[C@@H](c1ccnn1C)n1cnc2cnccc2c1=O	-8	1.27
Cc1nc2ccccn2c1CN1CCC(CNC(=O)[C@@H]2CCc3ccccc32)CC1	2	-0.48
Cn1nncc1C(=O)NC1(c2ccc(Br)cc2)CCCC1	2	-0.36
CCc1nc2nnc3c(=O)n(-c4ccccc4C)ccc3n2n1	3	-0.35
Fc1cccc2c1CCC[C@@H]2NCc1cncnc1	2	-0.3
Cc1ccc(C2c3cc(OCC(=O)NCC4CCCO4)ccc3CCN2C(=O)C2CCCC2)cc1 (stereo unspecified)	-17	1.92
COCCc1noc(Cn2c(Cl)cccc2=O)n1	-9	0.88
C[C@@H](c1nc(C2(c3ccc(F)cc3)CCC2)no1)n1cncn1	2	-0.42
CN(CC1(CO)CCCC1)C(=O)Nc1cccc(Cl)c1F	1	-0.16
CCCCS(=O)(=O)NCCCc1cc(C)no1	-15	2.26
CC(C)NC(=O)CN(C)CC(=O)Nc1cc(C2CCCC2)nn1-c1ccccc1	1	-0.16
CC(CC1CCCN1C(=O)OC(C)(C)C)NCCNC(=O)c1ccccc1Cl (stereo unspecified)	-8	0.73
